Counter-ions that a name gives are not always drawn. This is one part of the list. The data scatter; read single values as rough. Starred links: 1 amine or outer side, 2 acyl side, 3 side chain; linkers in the order of their positions; H or OH if unused. Positions of bridges follow the written chain, without caps; N, C: chain ends. Non-standard residues stand in square brackets, D forms with d. Residues, ends and D or L forms follow the SMILES beside them. *: point of attachment. X1 = NC1=N[C@@H]([C@H](N[*:1])C(=O)[*:2])C[C@H](O)N1; ΔAla(Z-3-ureido) = NC(=O)N/C=C(\N)C(=O)O; β3hOrn = NCCC[C@H](N)CC(=O)*; Dap = NC[C@H](N)C(=O)O
Experiments:
Experiment in all cases: ALDHbr (CSC) cell proportion score relative to DMSO vehicle (ratio to DMSO); breast (SUM159) / gastric (MKN45) / pancreatic (PANC1) / colon cancer lines; ALDHbr cells have high ALDH activity and are rich in cancer stem cells (CSC); higher = more CSC (ALDHbr) cells remaining
Conditions in all cases: 10 µM; 72 h
MKN45 = test system: MKN45
PANC1 = test system: PANC1
SUM159 = test system: SUM159
T84 = test system: T84
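Further: High-content imaging of ALDEFLUOR-stained cells with Hoechst-labelled nuclei in 384-well plates, triplicate wells, scored as Z-score against 0.1% DMSO vehicle, negative meaning fewer ALDHbr cells.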

SMILES | ALDHbr (MKN45) | ALDHbr (PANC1) | ALDHbr (SUM159) | ALDHbr (T84)
CC(C)NCC(O)c1ccc2ccccc2c1 (stereo unspecified) [Pronethalol hydrochloride] | 1.19 | 0.863 | 1.15 | 0.986
COc1cc(C(=O)NCc2ccc(OCCN(C)C)cc2)cc(OC)c1OC [Trimethobenzamide hydrochloride] | 1.27 | 0.708 | 0.898 | 0.858
CC(=O)O[C@]1(C(C)=O)CC[C@H]2[C@@H]3C=C(C)C4=CC(=O)CC[C@@H]4[C@H]3CC[C@@]21C [Nomegestrol acetate] | 1.1 | 0.684 | 0.623 | 0.902
CCCOc1ccccc1-c1nc2[nH]nnc2c(=O)[nH]1 [Zaprinast] | 0.991 | 0.916 | 1.43 | 0.995
NCCC[C@H](N)CC(=O)N[C@H]1CNC(=O)[C@H]([C@H]2C[C@H](O)NC(N)=N2)NC(=O)/C(=C/NC(N)=O)NC(=O)[C@H](CO)NC(=O)[C@H](CO)NC1=O [Viomycin sulfate] (β3hOrn-[Dap]SS[ΔAla(Z-3-ureido)][X1]; lactam 1-C) | 1.09 | 0.994 | 1.1 | 1.01
CCOC(=O)[C@H](CCc1ccccc1)N[C@@H](C)C(=O)N1CCC[C@H]1C(=O)O [Enalapril maleate] | 1.23 | 1.04 | 1.51 | 1
CCCCC(CC)CN1CN(CC(CC)CCCC)CC(C)(N)C1 (stereo unspecified) [Hexetidine] | 0.915 | 1.53 | 1.14 | 1.37
CCOc1cc(CC(=O)N[C@@H](CC(C)C)c2ccccc2N2CCCCC2)ccc1C(=O)O [Repaglinide] | 0.913 | 0.879 | 1.26 | 0.911
CC(C)(S)C(N)C(=O)O (racemic) [D,L-Penicillamine] | 1.06 | 0.977 | 1.04 | 0.921
O=C(O)CCNC(=O)c1ccc(/N=N/c2ccc(O)c(C(=O)O)c2)cc1 [Balsalazide Sodium] | 0.966 | 0.881 | 1.03 | 0.981
CC(=O)SCC(Cc1ccccc1)C(=O)NCC(=O)OCc1ccccc1 (stereo unspecified) [Racecadotril] | 0.941 | 1.02 | 1.33 | 0.884
Cc1cccc(C)c1NC(=O)C(C)N (stereo unspecified) [Tocainide hydrochloride] | 1.09 | 0.979 | 0.833 | 0.979
CN(C)CCCO[C@@H]1[C@H]2OC(C)(C)O[C@H]2O[C@@H]1[C@H](O)CO [Amiprilose hydrochloride] | 0.966 | 0.848 | 0.928 | 0.934
CNCC(O)c1ccc(OC(=O)C(C)(C)C)c(OC(=O)C(C)(C)C)c1 (stereo unspecified) [Dipivefrin hydrochloride] | 1.07 | 0.792 | 2.28 | 1.04
CC1COc2c(N3CCN(C)CC3)c(F)cc3c(=O)c(C(=O)O)cn1c23 (stereo unspecified) [Ofloxacin] | 1.17 | 0.989 | 0.929 | 1
Cc1cccc(Nc2ccccc2C(=O)O)c1C [Mefenamic acid] | 0.962 | 1.04 | 1.26 | 0.941
O=C1C(=O)c2ccccc2C(O)=C1C1CCC(c2ccc(Cl)cc2)CC1 (stereo unspecified) [Atovaquone] | 0.564 | 1.1 | 1.14 | 0.934
Cc1ccc(S(=O)(=O)NC(=O)NN2CC3CCCC3C2)cc1 (stereo unspecified) [Gliclazide] | 1.03 | 0.948 | 0.756 | 0.971
CC[N+](C)(CC)CCC[n+]1c(-c2ccccc2)c2cc(N)ccc2c2ccc(N)cc21 [Propidium iodide] | 1.06 | 0.935 | 1.34 | 1.07
CC1(C)O[C@@H]2C[C@H]3[C@@H]4CCC5=CC(=O)C=C[C@]5(C)[C@H]4[C@@H](O)C[C@]3(C)[C@]2(C(=O)CO)O1 [Desonide] | 0.828 | 0.647 | 0.936 | 0.792
C[C@@H](CN1CC(=O)NC(=O)C1)N1CC(=O)NC(=O)C1 [Dexrazoxane hydrochloride] | 1.41 | 0.949 | 1.36 | 0.793
CCOc1ccc2c(c1)C(C)=CC(C)(C)N2 [Ethoxyquin] | 0.947 | 0.905 | 1.04 | 0.839
CO[C@@H]1[C@@H](O[C@@H]2O[C@H](C)[C@@H](O[C@H]3C[C@@](C)(O)[C@@H](OC(=O)CC(C)C)[C@H](C)O3)[C@H](N(C)C)[C@H]2O)[C@@H](CC=O)C[C@@H](C)[C@@H](O)/C=C/C=C/C[C@@H](C)OC(=O)C[C@H]1OC(C)=O [Josamycin] | 0.594 | 0.641 | 1.4 | 0.773
CCCNCC(O)COc1ccccc1C(=O)CCc1ccccc1 (stereo unspecified) [Propafenone hydrochloride] | 1.27 | 0.831 | 1.55 | 0.894

Source: the supplement of paper PMC11880418
